# According to publication PMC4336329 (PLoS ONE, 2015):
# Among all 310,000 compounds or so, about 2,200 (0.71%) showed an effect of 50% or more. Effects have a minus sign here. Some of the results follow.
# Biological target: human ether-à-go-go-related gene (hERG) potassium channel (human, UniProt Q12809)
# Experiment: primary screen, population patch clamp on CHO cells stably expressing hERG
# Sequence of human ether-à-go-go-related gene (hERG) potassium channel (Q12809 whole entry, looked up): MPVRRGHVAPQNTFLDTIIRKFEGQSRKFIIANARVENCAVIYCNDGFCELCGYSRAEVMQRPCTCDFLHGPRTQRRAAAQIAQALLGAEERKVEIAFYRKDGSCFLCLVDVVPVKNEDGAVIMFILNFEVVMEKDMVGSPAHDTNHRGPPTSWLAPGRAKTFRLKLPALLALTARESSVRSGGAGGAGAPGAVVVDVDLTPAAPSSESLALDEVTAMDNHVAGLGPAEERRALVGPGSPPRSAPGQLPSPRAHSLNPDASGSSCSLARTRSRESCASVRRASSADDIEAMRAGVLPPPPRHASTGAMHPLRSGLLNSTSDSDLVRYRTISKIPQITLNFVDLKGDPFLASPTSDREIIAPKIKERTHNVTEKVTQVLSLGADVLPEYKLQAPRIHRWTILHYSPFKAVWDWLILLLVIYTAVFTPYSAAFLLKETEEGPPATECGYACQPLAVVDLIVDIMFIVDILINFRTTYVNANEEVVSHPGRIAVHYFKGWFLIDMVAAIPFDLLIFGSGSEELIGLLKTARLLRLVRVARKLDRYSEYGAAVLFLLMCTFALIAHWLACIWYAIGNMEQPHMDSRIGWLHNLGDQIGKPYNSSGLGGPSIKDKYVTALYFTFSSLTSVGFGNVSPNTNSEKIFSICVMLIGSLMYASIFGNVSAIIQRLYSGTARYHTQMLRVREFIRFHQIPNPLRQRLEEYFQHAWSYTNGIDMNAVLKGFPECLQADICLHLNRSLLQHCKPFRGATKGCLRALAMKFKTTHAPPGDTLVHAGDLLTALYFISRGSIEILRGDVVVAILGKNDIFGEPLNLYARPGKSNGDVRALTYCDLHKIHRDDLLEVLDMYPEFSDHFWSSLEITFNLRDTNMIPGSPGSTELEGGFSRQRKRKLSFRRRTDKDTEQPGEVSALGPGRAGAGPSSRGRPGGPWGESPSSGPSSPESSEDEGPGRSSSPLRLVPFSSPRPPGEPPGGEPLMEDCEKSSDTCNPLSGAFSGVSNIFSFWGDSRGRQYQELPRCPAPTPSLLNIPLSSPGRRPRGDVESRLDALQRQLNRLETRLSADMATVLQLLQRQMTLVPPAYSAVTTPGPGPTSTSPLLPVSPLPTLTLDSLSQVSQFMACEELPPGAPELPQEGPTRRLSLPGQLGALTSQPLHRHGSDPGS
row,Compound,"hERG current change (%, negative = inhibition) at 1uM"
1,Cc1ccccc1CN1C[C@@H]2C[C@@H](c3cn[nH]c3-c3ccc(F)cc3)N3CCC[C@@]23C1=O,-12.9%
2,CNC(=O)c1cc2c(-c3ccccc3)nn(C)c2s1,10.9%
3,CCCCNC(=O)CN1C(=O)NC(Cc2ccccc2)(Cc2ccccc2)C1=O,11%
4,CNC(=S)NC12CC3CC(CC(C3)C1)C2,13.3%
5,c1ccc2oc(NC3=NCN(C4CCCCC4)CN3)nc2c1,16.5%
6,CCN1CCN(c2nc3c(C)cccn3c(=O)c2C=C(C#N)C#N)CC1,-0.0089%
7,CCC(C)[C@H](NC(=O)N1CCCC1)C(=O)O (stereo partly shown),12.9%
8,O=C1C=C(c2cc3ccccc3s2)CCC1,1.19%
9,CCN(CC)CCCn1c(C)cc2c(c1=O)C(c1cc(OC)c(OC)cc1OC)C(C#N)=C(N)O2 (stereo not shown),1.91%
10,Cc1cccc(C)c1NC(=O)CN(C)C(=O)c1ccc(-n2cncn2)c([N+](=O)[O-])c1,3.34%
11,COc1ccc(-c2noc(N3CCC(C(=O)N(C)c4ccccc4)CC3)n2)cc1,-7.9%
12,CSCCC(NC(=O)COc1ccccc1)C(=O)N(C)CC(=O)Nc1ccc(Cl)cc1 (stereo not shown),5.3%
13,CC1=NN(C(=O)Cc2ccc([N+](=O)[O-])cc2)C(O)(C(F)(F)C(F)(F)F)C1 (stereo not shown),5.17%
14,Nc1ccc(S(=O)(=O)[N-]c2cnc3ccccc3n2)cc1.[Na+],-1.51%
15,CCN(CC)c1ccc(/C=N/NC(=O)c2cnccn2)c(O)c1,4.24%
16,Cc1cc(C(c2nnnn2Cc2ccccc2)N2CCOCC2)c(C)n1-c1ccc2c(c1)OCO2 (stereo not shown),-4.64%
17,CC(Sc1ncc(C(F)(F)F)cc1Cl)C(=O)NCC1CCCO1 (stereo not shown),-1.47%
18,Cc1cccc(CSc2nc3nc(C)cc(C)n3n2)c1,-3.14%
19,O=C(c1ccc(CS(=O)Cc2ccc(Cl)cc2)o1)N1CCN(c2cccc(Cl)c2)CC1 (stereo not shown),8.12%
20,Cc1ccc(C)c(OCC(=O)Nc2ccc(S(=O)(=O)N3CCN(C)CC3)cc2)c1,5.65%
21,CCOc1ccc(CCNC(=O)C2CCCN(c3ncnc4c3nc3n4CCCCC3)C2)cc1 (stereo not shown),-8.63%
22,Cn1cnc2c1c(=O)n(Cc1cccc(F)c1)c(=O)n2C,15.2%

row,Compound,"hERG current change (%, negative = inhibition) at 1uM"
1,COc1ccc(CC(=O)Nc2cccc(S(=O)(=O)N3CCOCC3)c2)cc1OC,11.2%
2,COc1cccc(NC(=S)NCc2cccs2)c1,10.3%
3,O=C(NCCc1nc2ccccc2[nH]1)C1CCC(=O)N(CCc2cccc(F)c2)C1 (stereo not shown),2.46%
4,COc1ccc(OC)c(S(=O)(=O)NC(C)(C)C)c1,22.3%
5,COc1ccc(-c2nc3nc(C)cc(C)n3n2)cc1,0.732%
6,COc1cc(C)c(Br)cc1S(=O)(=O)NCc1ccncc1,14.8%
7,CCOc1ccc(OCCC(=O)NNC(=O)c2cc(OC)c(OC)c(OC)c2)cc1,-24.2%
8,CSc1ccccc1C(=O)Nc1cccc([N+](=O)[O-])c1,0.474%
9,Cc1csc(SCCn2c(N3CCCC3)nc3c2c(=O)[nH]c(=O)n3C)n1,6.17%
10,C[C@H]1CC[C@H]2C(=O)N3[C@H](c4ccccc4Br)[C@@H](C)CC[C@H]3C(=O)N2[C@@H]1c1ccccc1Br,16.1%
11,CC(CN1C(C)CCCC1C)OC(=O)c1ccccc1F.Cl (stereo not shown),4.71%
12,COC(=O)c1ccc(C(=O)OC)c(NC(=S)N2CCN(c3ccc(F)cc3)CC2)c1,-0.255%
13,CC1CCCN(C(=O)Cn2nnc(-c3ccc(S(C)(=O)=O)cc3)n2)C1 (stereo not shown),21.2%
14,C=CCOc1cccc(C2/C(=C(\O)c3ccc4c(c3)OCCO4)C(=O)C(=O)N2Cc2cccnc2)c1 (stereo not shown),13.3%
15,O=C(CCNC(=O)C1CCN(S(=O)(=O)c2ccccc2)CC1)NCCc1ccc(Cl)cc1,12.9%
16,Cc1cc(C(=O)N/N=C/c2ccc(Br)o2)n[nH]1,11.7%
17,Cc1ccc(NS(=O)(=O)c2cc(C(=O)NCc3cccnc3)ccc2C)cc1,-4.06%
18,Cc1ccc(S(=O)(=O)NC(=O)COc2ccccc2)cc1,13.3%
19,COc1ccc(OCC(=O)Nc2ccc(NC(=O)c3cccs3)cc2)cc1,9.81%
20,CC(=O)c1ccc(-n2c(CCC(=O)O)ccc2-c2ccc(Br)cc2)cc1,7.99%
21,Cc1cc(N(C)NC(=S)Nc2ccccc2)nc(C)n1,15.4%
